Test results taken from paper PMC6641210.
Like-named read-outs stand apart in the source and are kept apart here.

Assays:
Test in all cases: SPR
[1] = target: chimeric rabbit IgG: variable regions of human 25G1 on rabbit IgG heavy and rabbit kappa (K2) light chain constant regions (human | rabbit (Oryctolagus cuniculus))
[2] = target: human IgG1 anti-Tissue Factor antibody 25G1 with a kappa light chain (human)
[3] = target: chimeric rabbit IgG: variable regions of human 25G1 on rabbit IgG heavy and rabbit kappa (K2) light chain constant regions (human | rabbit (Oryctolagus cuniculus)); remark: listed apart in the source
[4] = target: human IgG1 anti-Tissue Factor antibody 25G1 with a kappa light chain (human); remark: listed apart in the source

Chain of chimeric rabbit IgG: variable regions of human 25G1 on rabbit IgG heavy and rabbit kappa (K2) light chain constant regions (human | rabbit (Oryctolagus cuniculus)) (heavy, as listed by the source, chain 1 of 2): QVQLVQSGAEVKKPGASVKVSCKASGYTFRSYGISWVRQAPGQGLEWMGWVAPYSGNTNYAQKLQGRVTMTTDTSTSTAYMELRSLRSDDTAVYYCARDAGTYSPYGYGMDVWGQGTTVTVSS
Chain of chimeric rabbit IgG: variable regions of human 25G1 on rabbit IgG heavy and rabbit kappa (K2) light chain constant regions (human | rabbit (Oryctolagus cuniculus)) (light, as listed by the source, chain 2 of 2): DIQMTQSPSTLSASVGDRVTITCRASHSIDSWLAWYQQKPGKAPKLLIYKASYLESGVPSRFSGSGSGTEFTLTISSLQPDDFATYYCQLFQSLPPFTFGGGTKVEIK
Chain of human IgG1 anti-Tissue Factor antibody 25G1 with a kappa light chain (human) (heavy, as listed by the source, chain 1 of 2): as the sequence (heavy, as listed by the source, chain 1 of 2) above
Chain of human IgG1 anti-Tissue Factor antibody 25G1 with a kappa light chain (human) (light, as listed by the source, chain 2 of 2): as the sequence (light, as listed by the source, chain 2 of 2) above

Kd [1]: 172 nM
Kd [2]: 123 nM
Kd [3]: 181 nM
koff [3]: 0.26 s⁻¹
kon [3]: 1.44e+06 M⁻¹ s⁻¹
koff [4]: 0.22 s⁻¹
kon [4]: 1.89e+06 M⁻¹ s⁻¹
Substance: human FcγRIIIA-V158 (high affinity allele) extracellular domain fragment (letters omitted) (receptor; modification not given)
